# Results from the supplement of paper PMC9174493.
# The other results are listed elsewhere or left out. Single values of this set are uncertain. Values with irradiation are relative to irradiated vehicle.
# Assays:
# A549-Dual [1] = assay: NF-kB reporter (SEAP) activity, viability-corrected, relative to vehicle (fold change vs vehicle); higher = more activation of STING-IRF / NF-kB immune response reporter; details: 10 µM
# A549-Dual [2] = assay: ISRE reporter (Lucia luciferase) activity, viability-corrected, relative to vehicle (fold change vs vehicle); higher = more activation of STING-IRF / NF-kB immune response reporter; details: 10 µM
# 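Wherever NF-kB reporter (SEAP) activity, viability-corrected, relative to vehicle is given: viability correction based on the alamar blue assay, with concentrations leaving 10% survival or less dropped.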
Compound,NF-kB reporter (A549-Dual [1]; irradiation: 8 Gy/4 fr),NF-kB reporter (A549-Dual [1]; irradiation: none),ISRE reporter (A549-Dual [2]; irradiation: 8 Gy/4 fr),ISRE reporter (A549-Dual [2]; irradiation: none)
CC(=O)Oc1cc2c(s1)CCN(C(C(=O)C1CC1)c1ccccc1F)C2 (stereo not given) [Prasugrel],1.75,2.93,0.297,0.918
CCOC(=O)[N-]c1c[n+](N2CCOCC2)no1 [Molsidomine],0.797,0.935,0.775,0.66
Cc1cc(-c2ccccc2)nnc1NCCN1CCOCC1.Cl.Cl [Minaprine dihydrochloride],0.761,0.624,0.74,0.49
Cc1ccnc2c1NC(=O)c1cccnc1N2C1CC1 [Nevirapine],0.571,0.912,0.686,0.832
O=S(=O)([O-])c1cc(O)ccc1O [Calcium Dobesilate],1.02,0.727,1.21,0.596
CC1(C)OC2COC3(COS(N)(=O)=O)OC(C)(C)OC3C2O1 (stereo not given) [Topiramate],0.767,0.915,0.765,0.798
CCc1cc2c(cc1CC)CC(NCC(O)c1ccc(O)c3[nH]c(=O)ccc13)C2.O=C(O)/C=C\C(=O)O (stereo not given) [Indacaterol Maleate],0.647,1.1,0.778,0.99
O=c1cc[nH]c(=S)[nH]1 [2-Thiouracil],0.799,0.829,0.921,0.772
C#CCN(C)CCCOc1ccc(Cl)cc1Cl.Cl [Clorgyline HCl],1.17,1.34,0.99,1.08
Oc1c(I)cc(Cl)c2cccnc12 [Clioquinol],0.686,0.826,0.292,0.306
